Measured values as given in the antibiotic and cytotoxicity screens of Wong et al. (2023).
The list shows a part of the results.

Key:
HSkMC = human skeletal muscle cells; experiment: cytotoxicity call (relative viability < 0.9); conditions: 10 µM
HepG2 = experiment: cytotoxicity call (relative viability < 0.9); conditions: 10 µM
S. aureus RN4220 = experiment: growth inhibition call (relative growth <= 0.2); conditions: 50 µM

Row | SMILES | cytotoxicity call (HSkMC) | cytotoxicity call (HepG2) | growth inhibition call (S. aureus RN4220)
1 | CCOC(=O)[C@H]1[C@@H]2C=C[C@]3(O2)[C@H](C(=O)NCc2ccccc2)N(Cc2cc(OC)cc(OC)c2)C(=O)[C@@H]13 | inactive | inactive | inactive
2 | C[C@H]1CN([C@@H](C)CO)C(=O)Cc2cc(NS(=O)(=O)c3ccccc3)ccc2O[C@H]1CN(C)Cc1ccc(-c2ccccc2)cc1 | active | active | inactive
3 | COc1ccc([Si](C)(C)[C@H]2[C@H](CC(=O)N3Cc4ccccc4C[C@H]3CO)O[C@@]3(C(=O)N(Cc4cccc(I)c4)c4ccccc43)[C@@H]2C)cc1 | inactive | inactive | inactive
4 | COc1ccc(-c2ccc3c(c2)O[C@@H](CN(C)CC2CCOCC2)[C@H](C)CN([C@@H](C)CO)S3(=O)=O)cc1 | inactive | inactive | inactive
5 | CCOC(=O)C(C#N)C1=NCCC1 (stereo not drawn) | inactive | inactive | inactive
6 | O=S1(=O)COC[C@@H](c2ccccc2)N1 | inactive | inactive | inactive
7 | COc1ccc(CN(C)C[C@H]2Oc3c(NC(=O)Nc4ccc(C(F)(F)F)cc4)cccc3C(=O)N([C@@H](C)CO)C[C@H]2C)cc1 | inactive | active | inactive
8 | COc1cccc(S(=O)(=O)N(C)C[C@H]2Oc3cc(C#CCN(C)C)ccc3S(=O)(=O)N([C@@H](C)CO)C[C@@H]2C)c1 | inactive | inactive | inactive
9 | C[C@H]1CN([C@@H](C)CO)C(=O)c2cccc(NS(C)(=O)=O)c2O[C@H]1CN(C)Cc1ccc(C(=O)Nc2ccccc2N)cc1 | inactive | inactive | inactive
10 | Cc1nc(N(C)C)ncc1C(=O)O | inactive | inactive | inactive
11 | Cc1cc(C)c(S(=O)(=O)NCCO)cc1C | inactive | inactive | inactive
